The campaign covered roughly 150,000 compounds. About 540 (0.36%) showed an effect of 50% or more. The list shows a part of the results.

This assay concerns Plasmodium falciparum. Put plainly: Primary screen in NF54 nanoGlo assay, in single point, at 2uM, 72h; a lower Z score goes with more inhibition. The format is functional, Erythrocyte. The settings on record: timepoint 72 hour.
Regarding `Cn1nccc1CN1CCCCc2c(Cl)cccc21`, the % Inhibition – broadly, the relative decrease from the control value, in per cent – is reported as -8% and the Z score was determined as 0.76.
Turning to `Cc1cc(OS(=O)(=O)c2cc(C)c(C)cc2C)c2ccccc2n1`, the “% Inhibition” value is -41% and the Z score is on record as 4.77.
Regarding `c1nc(N2CC[C@H](OCCN3CCCCC3)C2)c2ccsc2n1`, the “% Inhibition” value is -12% and the Z score turned out to be 0.98.
With `CCc1cc(CNC(=O)[C@H]2CCc3nnnn3CC2)on1`, the “% Inhibition” value is -12% and the Z score stood at 1.42.
On to `CC(C)CCNC(=O)CN1C(=O)N[C@@]2(CCS(=O)(=O)c3ccc(F)cc32)C1=O`, for which the “% Inhibition” value is -15% and the Z score stood at 1.42.
As to `CC(C)c1cc(NC[C@@H](C(C)C)N(C)C)ncn1`, the “% Inhibition” value was -5% and the Z score was 0.77.
`CCn1cc(CN(C(=O)c2cc(C3CC3)nc3c2c(C)nn3C)c2cccc(C)c2)c(C)n1`: the “% Inhibition” value was found to be 0% and the Z score is reported as 0.01.
As to `CCOC(=O)N1CCN(C(=O)c2ccc(-c3ccc(Oc4ccccc4)cc3)nc2)CC1`, the “% Inhibition” value was -8% and the Z score is 1.23.
In the case of `COc1ccc(N2CCN(c3ncccc3-c3nc(-c4ccc(C)cc4)no3)CC2)cc1`, the “% Inhibition” value is -6% and the Z score is 0.87.
Take `Cc1nn(C)c(C)c1CNC(C1CC1)C(CO)C1CC1` (stereo not given): the “% Inhibition” value is -3% and the Z score was determined as 0.4.
Regarding `CC1CC(C)CC2(C1)NC(=O)N(CC(O)CC(F)(F)F)C2=O` (stereo not given), the “% Inhibition” value is listed as -13% and the Z score is listed as 1.31.
On to `C[C@@H](C(=O)Nc1ccn(C(C)(C)C(=O)O)n1)c1cccs1`, for which the “% Inhibition” value is given as -1% and the Z score was 0.18.
As to `CS(=O)(=O)c1ccc(Br)c(S(=O)(=O)NCCn2ncnn2)c1`, the “% Inhibition” value is recorded as -11% and the Z score is 1.64.
Turning to `Cc1nnc2cc(N3CCN(S(=O)(=O)c4ccc(Cl)cc4)CC3)cnn12`, the “% Inhibition” value came out at 2% and the Z score was -0.25.
Regarding `O=C(O)c1cccc(Cn2nnn(C3CC3)c2=O)c1`, the “% Inhibition” value was -13% and the Z score amounted to 1.31.
In the case of `COC1(c2noc(-c3ccc(C)nc3C(C)C)n2)CCOCC1`, the “% Inhibition” value is reported as -9% and the Z score was 0.94.
`CCN(CCNC(=O)NC1CCCC1)C1CC1`: the “% Inhibition” value was -10% and the Z score is listed as 1.39.
Regarding `O=C1N[C@H]2C[C@@H](C(=O)NC[C@H]3O[C@H](CCOc4ccccc41)CC[C@@H]3O)N(C1CCC1)C2`, the “% Inhibition” value is reported as -6% and the Z score is 1.
For `COc1ccccc1[C@H]1C[C@@H](C)CCN1CCN1CCNC1=O`, the “% Inhibition” value is given as 4% and the Z score was -0.32.
Turning to `Cc1oc(C)c(C(=O)N(C)c2ccccc2)c1C`, the “% Inhibition” value is -3% and the Z score is on record as 0.53.
For `CCc1oc(C(=O)N(C)Cc2cc(C3CC3)[nH]n2)cc1CN1CCCC1` the same measures were 13% and -1.62.
Take `CC1CC(N)CCN1C(=O)c1ccc(Oc2ccc(C(F)(F)F)cn2)cc1` (stereo not given): the “% Inhibition” value was found to be 15% and the Z score is given as -1.88.
For the compound `CCOC(=O)Cc1csc(NC(=O)[C@@H]2CCCN2S(=O)(=O)c2ccccc2F)n1`, the “% Inhibition” value is recorded as 0% and the Z score is on record as 0.02.
Consider `CCN(CC)[C@@H](CNc1oc(-c2cccnc2)nc1C#N)c1ccc(C(C)C)cc1`, for which the “% Inhibition” value was 5% and the Z score is recorded as -0.69.
For `COc1cccc(C2(NC(=O)C3CC4C=CC3C4)CCOCC2)c1F` (stereo not given) the same measures were -5% and 0.58.
For `COCCN1C(=O)c2ccc(C(=O)Nc3ccc4[nH]ccc4c3)cc2C1=O` the same measures were -5% and 0.76.
For `O=C1CC[C@@H](C(=O)N2CC(N3CCCC3=O)C2)n2cccc21` the same measures were -3% and 0.58.
As to `COc1cnc(N(C)S(=O)(=O)c2c(C)nn(C)c2Cl)nc1`, the “% Inhibition” value is given as -9% and the Z score worked out at 1.26.
As for `Cc1scc(C(=O)NCc2ccccn2)c1C`, the “% Inhibition” value is reported as -12% and the Z score turned out to be 1.61.
Turning to `CCN(C)C(C)(C)CNC(=O)[C@H](C)n1cc(Cl)cn1`, the “% Inhibition” value was -11% and the Z score is on record as 1.54.
As to `COc1ccc(S(=O)(=O)N2CCN(c3oc(C(C)(C)C)nc3C#N)CC2)cc1`, the “% Inhibition” value is reported as -5% and the Z score was determined as 0.71.
Take `Cc1csc(N(C)C(=O)[C@@H]2COc3ccccc3O2)n1`: the “% Inhibition” value is reported as -6% and the Z score is 1.24.
As for `Cc1cc(NS(=O)(=O)c2ccc3c(c2)CC(Cl)(Cl)C3=O)nn1C`, the “% Inhibition” value is recorded as 13% and the Z score was -1.52.
For the compound `CC(=O)c1ccc(N2CCC3(CCC(=O)N(CCc4c[nH]cn4)C3)CC2)nc1`, the “% Inhibition” value was -7% and the Z score worked out at 0.86.
With `CCOc1ccc(-c2c[nH]c(-c3cccc(OC)c3OC)n2)cc1`, the “% Inhibition” value stood at 0% and the Z score is recorded as 0.03.
On to `C[C@H]1C(=O)Nc2ccccc2CN1CC1(CS(C)(=O)=O)CC1`, for which the “% Inhibition” value is -7% and the Z score came out at 1.16.
Turning to `COc1cc(C(=O)N[C@H](CO)CC(C)C)ccc1Cl`, the “% Inhibition” value was -2% and the Z score was determined as 0.29.
Turning to `Cc1ccc(S(=O)(=O)NCc2ccc(C(=O)NC3CCCCC3)cc2)cc1`, the “% Inhibition” value is -6% and the Z score came to 1.03.
In the case of `O=S(=O)(CCn1nnc2ccccc21)NCC1CCCC1`, the “% Inhibition” value is reported as -13% and the Z score was found to be 1.18.
In the case of `CN(C(=O)Cn1c2cc(Cl)ccc2c(=O)n1C(C)(C)C)c1ccccc1`, the “% Inhibition” value amounted to 11% and the Z score is recorded as -1.71.
Take `O=C(c1ccon1)N1CCn2c(Cc3cccc(F)c3)nnc2C1`: the “% Inhibition” value is reported as -18% and the Z score is given as 1.83.
Consider `CCN(Cc1nc2ccccc2c(=O)[nH]1)C(=O)c1ccoc1`, for which the “% Inhibition” value was -8% and the Z score amounted to 1.06.
`COCCN1C(=O)CC(CC(=O)N2CCCCC2c2nccn2C)(c2ccccc2C)C1=O` (stereo not given): the “% Inhibition” value is -13% and the Z score is listed as 1.82.
Turning to `Cc1sc(-c2cc(C(F)(F)F)on2)cc1S(=O)(=O)N1CCc2ccccc21`, the “% Inhibition” value is -4% and the Z score amounted to 0.71.
For `Cc1ccc(C)c(Cn2c(COc3ccc4ccccc4c3)nc3ccccc32)c1` the same measures were -4% and 0.43.
For `Cc1ncc2c(c1-c1noc(CCN3Cc4ccccc4C3)n1)CCNC2`, the “% Inhibition” value was -3% and the Z score stood at 0.42.
Consider `CC(NC(=O)c1csc(-c2ccco2)n1)C1CCCO1` (stereo not given), for which the “% Inhibition” value was -8% and the Z score is 1.41.
`CC(C)C(C)NC(=O)CNC(=O)C1CC1C` (stereo not given): the “% Inhibition” value is recorded as -4% and the Z score amounted to 0.8.
In the case of `O=C(C1CCN(c2ccc(N3CCCC3)nn2)CC1)N1CCN(c2cccc(C(F)(F)F)c2)CC1`, the “% Inhibition” value is given as -20% and the Z score was determined as 3.52.
As for `Cc1onc(N)c1S(=O)(=O)N(c1ccccc1)C(C)C`, the “% Inhibition” value is -2% and the Z score amounted to 0.27.
With `CCC(Oc1cccc(C)c1)C(=O)NC1CCC(=O)N(C)C1` (stereo not given), the “% Inhibition” value is given as -8% and the Z score is 0.82.
Regarding `Cc1cc(S(=O)(=O)NC[C@H](C)O)c(C(C)C)cc1Br`, the “% Inhibition” value was -9% and the Z score was 0.83.
Turning to `O=C1CCN(c2ncc(-c3cccc4[nH]c(=O)[nH]c34)cn2)CC1`, the “% Inhibition” value is -8% and the Z score was found to be 1.69.
Turning to `Cc1nonc1CC(=O)N(C)C[C@H]1COc2ccccc2O1`, the “% Inhibition” value is listed as -16% and the Z score is given as 2.08.
The corresponding values for `Cc1cc(C(=O)N2CC(n3cc(C4CC4)nn3)C2)no1` are -16% and 1.89.
`Cc1ccc(CN2CCC[C@H](CNC(=O)c3ccncn3)C2)cc1C`: the “% Inhibition” value is on record as -11% and the Z score was determined as 2.13.
As to `COc1ccc(Cl)cc1N1CCN(Cc2nc(C(=O)NCc3cccc(C(F)(F)F)c3)co2)CC1`, the “% Inhibition” value is given as -18% and the Z score amounted to 1.8.
For the compound `Cc1cc(NC(=O)N2CC(C)(C)[C@@H]3COC[C@@H]32)ccc1-c1ccncc1`, the “% Inhibition” value is given as -13% and the Z score is recorded as 2.18.
Take `CC1(C)NC(=O)N(CC(=O)Nc2ccc3c(c2)OCCCO3)C1=O`: the “% Inhibition” value is recorded as -7% and the Z score is 1.37.
In the case of `COc1ccc(N2CCN(C(=O)c3nccnc3NC(=O)c3ccccc3)CC2)cc1`, the “% Inhibition” value was -13% and the Z score worked out at 1.97.
The corresponding values for `Cc1ccc(O)c(CN(CCN(C)C)Cc2ccsc2)n1` are -8% and 1.15.
With `COc1ccccc1CCN(C)c1cc(N2CCOCC2)ncn1`, the “% Inhibition” value is -3% and the Z score is reported as 0.31.
Turning to `O=C(Cc1ccc(F)cc1)NC[C@H]1CCN(C(=O)c2ccccn2)C[C@@H]1O`, the “% Inhibition” value was -9% and the Z score is reported as 1.58.
Turning to `CC1CCCCC1N(C)C(=O)C1=NN(C)C(=O)CC1` (stereo not given), the “% Inhibition” value is reported as 1% and the Z score was -0.18.
With `O=C(NCC1(CO)CCC1)Nc1cccc(-c2ccccc2)c1`, the “% Inhibition” value was -2% and the Z score was determined as 0.24.
The corresponding values for `CCc1nnc(CN[C@@H](C)c2ccc(S(C)(=O)=O)c(F)c2)n1C` are -5% and 0.58.
With `CCCCn1nnnc1Cn1c(=O)c2c(C(F)(F)F)cc(C)nc2n1C`, the “% Inhibition” value is given as -4% and the Z score is 0.51.
Turning to `Cc1cc(C(=O)Nc2nnc(C3CC3)s2)no1`, the “% Inhibition” value amounted to 5% and the Z score is recorded as -0.48.
As for `CCOc1ncccc1C(=O)N1CCC[C@H](c2nc(CCOC)no2)C1`, the “% Inhibition” value is recorded as -3% and the Z score worked out at 0.41.
For `Cc1cc(O)cc(=O)n1CCNC(=O)c1ccncc1`, the “% Inhibition” value is -13% and the Z score came out at 1.62.
`C[C@H](NC(=O)OC(C)(C)C)c1nnc(S(=O)(=O)Cc2c(F)cccc2Cl)o1`: the “% Inhibition” value is reported as 5% and the Z score is on record as -0.93.
On to `COC(=O)C1=C(C)N([C@@H](C)c2ccccc2)C(=O)C1`, for which the “% Inhibition” value is reported as 13% and the Z score was -1.59.
For `CS(=O)(=O)N1CC(Oc2cccnc2)C1` the same measures were -8% and 1.52.
The corresponding values for `Cc1cc(C)c(N2CC[C@H](NC(=O)c3cnns3)C2=O)c(C)c1` are 5% and -0.97.
The corresponding values for `O=C(C1CC=CCC1c1nc2ccccc2s1)N1CCN(c2ccccc2)CC1` (stereo not given) are -1% and 0.21.
As for `Cc1cc(CN(C)S(=O)(=O)c2cnc(-c3ccccc3)nc2)no1`, the “% Inhibition” value is given as 7% and the Z score was -0.9.
Take `CC(C)(C)Cc1cc(NC(=O)Nc2nccs2)n[nH]1`: the “% Inhibition” value is -15% and the Z score stood at 2.38.
For the compound `C=CCOCC(=O)c1ccc(NC(C)=O)cc1`, the “% Inhibition” value was -14% and the Z score was 1.9.
With `Cc1nn(C)cc1-c1cnc(C(C)(C)C)o1`, the “% Inhibition” value is on record as -4% and the Z score worked out at 0.53.
As for `C[C@H](C(=O)O)C(=O)N(C)Cc1cc(Cl)ccc1F`, the “% Inhibition” value is -1% and the Z score is 0.06.
`O=S(=O)(N1CCCCCC1)N1CCN(Cc2ccco2)CC1`: the “% Inhibition” value is -18% and the Z score is recorded as 1.94.
Take `Cc1cc(C)nc(NC(=O)NC[C@](C)(O)c2cccs2)c1`: the “% Inhibition” value was -5% and the Z score was 0.84.
For the compound `Nc1ncc(-c2cc3ccccc3o2)cn1`, the “% Inhibition” value is -9% and the Z score is listed as 1.42.
Regarding `CCCCN1CCc2ccc(NC(=O)CS(=O)(=O)CCC)cc21`, the “% Inhibition” value was determined as 31% and the Z score was -3.46.
For `Cc1nc(C2CC2)nc(N2CCN(C(=O)NC(C)C)CC2)c1Cc1c(F)cccc1Cl`, the “% Inhibition” value is listed as 0% and the Z score is -0.05.
